Test results as given in publication PMC10868759.
Results are given in words; binding and its absence hold for the method and conditions named. Binding seen in cells or lysates may run through a third protein. Some entries that bind do so weakly or less than the wild type. Sequences can lack the tags named with a protein.

Tests used:
Test in all cases: split reporter; BiFC: N-terminal YN and YC fusions co-expressed in epidermal cells of N. benthamiana leaves, observed 3 days after infiltration by spinning-disk microscopy; CFP-N7 as transformation control
[1] = target: MUR3, N-terminal YN or YC fusion (BiFC) (UniProt Q7XJ98)
[2] = target: T1, CESA3, N-terminal YN or YC fusion (BiFC) (Arabidopsis thaliana) (UniProt Q941L0)
T1 sequence: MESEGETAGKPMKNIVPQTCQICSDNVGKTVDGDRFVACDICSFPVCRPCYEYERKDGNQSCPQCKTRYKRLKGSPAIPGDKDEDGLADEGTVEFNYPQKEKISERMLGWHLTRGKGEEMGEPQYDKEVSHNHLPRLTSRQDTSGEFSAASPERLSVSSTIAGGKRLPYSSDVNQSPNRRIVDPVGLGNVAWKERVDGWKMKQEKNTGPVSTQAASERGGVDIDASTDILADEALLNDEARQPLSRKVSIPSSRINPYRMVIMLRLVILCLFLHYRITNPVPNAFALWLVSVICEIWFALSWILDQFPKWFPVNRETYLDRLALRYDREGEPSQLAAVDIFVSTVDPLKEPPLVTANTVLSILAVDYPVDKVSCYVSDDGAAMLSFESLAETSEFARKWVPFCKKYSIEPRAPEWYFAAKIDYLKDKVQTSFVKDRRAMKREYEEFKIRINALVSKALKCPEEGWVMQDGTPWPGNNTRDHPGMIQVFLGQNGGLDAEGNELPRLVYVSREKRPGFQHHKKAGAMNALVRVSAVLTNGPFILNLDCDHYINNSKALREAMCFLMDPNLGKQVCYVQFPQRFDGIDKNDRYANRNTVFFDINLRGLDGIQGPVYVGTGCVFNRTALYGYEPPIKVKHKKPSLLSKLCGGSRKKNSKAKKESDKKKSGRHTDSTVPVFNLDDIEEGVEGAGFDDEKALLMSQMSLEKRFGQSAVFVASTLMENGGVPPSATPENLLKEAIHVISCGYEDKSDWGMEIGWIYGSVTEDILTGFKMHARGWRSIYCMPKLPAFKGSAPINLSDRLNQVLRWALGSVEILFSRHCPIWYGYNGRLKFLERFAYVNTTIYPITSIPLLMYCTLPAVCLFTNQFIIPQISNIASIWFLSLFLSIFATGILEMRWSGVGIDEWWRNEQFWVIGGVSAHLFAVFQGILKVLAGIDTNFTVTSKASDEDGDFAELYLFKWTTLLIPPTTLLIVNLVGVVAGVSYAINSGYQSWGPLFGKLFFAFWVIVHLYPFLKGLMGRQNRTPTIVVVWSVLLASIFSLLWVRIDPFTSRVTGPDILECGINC

[3] = target: T2, TIP1, N-terminal YN or YC fusion (BiFC) (Arabidopsis thaliana) (UniProt Q52T38)
T2 sequence: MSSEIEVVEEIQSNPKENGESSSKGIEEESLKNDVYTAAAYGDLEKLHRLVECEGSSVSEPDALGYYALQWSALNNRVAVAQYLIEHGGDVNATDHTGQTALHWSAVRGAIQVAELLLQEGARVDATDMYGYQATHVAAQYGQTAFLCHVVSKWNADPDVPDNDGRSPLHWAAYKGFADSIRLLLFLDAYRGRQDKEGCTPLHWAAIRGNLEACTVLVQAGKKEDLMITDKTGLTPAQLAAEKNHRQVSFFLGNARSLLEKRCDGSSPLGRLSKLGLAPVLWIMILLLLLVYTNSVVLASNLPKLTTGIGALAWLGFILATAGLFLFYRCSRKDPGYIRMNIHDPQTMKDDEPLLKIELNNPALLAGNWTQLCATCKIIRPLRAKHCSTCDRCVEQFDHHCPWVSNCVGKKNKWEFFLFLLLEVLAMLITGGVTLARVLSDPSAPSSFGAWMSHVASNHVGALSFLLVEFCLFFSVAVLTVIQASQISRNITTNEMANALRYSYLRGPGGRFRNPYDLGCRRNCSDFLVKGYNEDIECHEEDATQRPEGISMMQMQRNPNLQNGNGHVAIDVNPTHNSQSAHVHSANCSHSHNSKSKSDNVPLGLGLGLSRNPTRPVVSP

binding [1]: binds
binding [2]: no binding
binding [3]: no binding
B1: MUR3, N-terminal YN or YC fusion (BiFC) (protein, UniProt Q7XJ98 1-619)
chain: MFPRVSMRRRSAEVSPTEPMEKGNGKNQTNRICLLVALSLFFWALLLYFHFVVLGTSNIDKQLQLQPSYAQSQPSSVSLRVDKFPIEPHAAPSKPPPKEPLVTIDKPILPPAPVANSSSTFKPPRIVESGKKQEFSFIRALKTVDNKSDPCGGKYIYVHNLPSKFNEDMLRDCKKLSLWTNMCKFTTNAGLGPPLENVEGVFSDEGWYATNQFAVDVIFSNRMKQYKCLTNDSSLAAAIFVPFYAGFDIARYLWGYNISRRDAASLELVDWLMKRPEWDIMRGKDHFLVAGRITWDFRRLSEEETDWGNKLLFLPAAKNMSMLVVESSPWNANDFGIPYPTYFHPAKDSEVFEWQDRMRNLERKWLFSFAGAPRPDNPKSIRGQIIDQCRNSNVGKLLECDFGESKCHAPSSIMQMFQSSLFCLQPQGDSYTRRSAFDSMLAGCIPVFFHPGSAYTQYTWHLPKNYTTYSVFIPEDDVRKRNISIEERLLQIPAKQVKIMRENVINLIPRLIYADPRSELETQKDAFDVSVQAVIDKVTRLRKNMIEGRTEYDYFVEENSWKYALLEEGQREAGGHVWDPFFSKPKPGEDGSSDGNGGTTISADAAKNSWKSEQRDKTQ
